Reference: ChEMBL document CHEMBL4888484, “Replenishing the malaria drug discovery pipeline: Screening and hit evaluation of the MMV Hit Generation Library 1 (HGL1) against asexual blood stage Plasmodium falciparum ,using a nano luciferase reporter read-out” (2022)
The campaign covered roughly 150,000 compounds. About 540 (0.36%) showed an effect of 50% or more. The list shows a part of the results.

The compounds below were run on Plasmodium falciparum (assay: Primary screen in NF54 nanoGlo assay, in single point, at 2uM, 72h; a lower Z score goes with more inhibition). Conditions: timepoint 72 hour.
Format: functional, Erythrocyte
CCO[C@@H](CCNC(=O)c1cccc(-c2ncn[nH]2)c1)C(C)C was tested, and the “% Inhibition” value was -7% and the Z score was 0.96. In the case of CO[C@@H]1CS(=O)(=O)[C@H]2CN(C(=O)Nc3ccc4c(c3F)CCNC4=O)C[C@@H]12, the “% Inhibition” value is reported as -13% and the Z score is reported as 1.67. CC1(C)Cc2ccc3nc(N)nc(N)c3c2O1 was tested, and the “% Inhibition” value was -1% and the Z score was 0.14. For O=C(NC[C@@H](c1ccsc1)n1cccn1)c1ccno1, the “% Inhibition” value was -5% and the Z score was 1.08. In the case of N#Cc1ccc(CNC(=O)c2ccc3nc(-c4ccccc4)cn3c2)cc1, the “% Inhibition” value is reported as -16% and the Z score is reported as 2.02. For OCC[C@H]1CCCCN1CCN1CCN(Cc2ccccc2)CC1, the “% Inhibition” value was 7% and the Z score was -0.86. For Cc1nc(C2(C)CCN(C(=O)c3noc(C)c3Cc3c(C)noc3C)CC2)no1, the “% Inhibition” value was -6% and the Z score was 0.74. CC(C)CC(=O)N1CC[C@H]2COC(=O)N2c2ccccc2C1 was tested, and the “% Inhibition” value was -4% and the Z score was 0.68. With CC12C(=O)N(c3ccc(OC(=O)c4ccccc4)cc3)C(=O)C1C1c3ccccc3C2c2ccccc21 (stereo not drawn) the “% Inhibition” value was 2% and the Z score was -0.23. With Cn1cccc1[C@@H](O)CCNC(=O)Nc1ccccc1 the “% Inhibition” value was -4% and the Z score was 0.63. In the case of Fc1ccccc1-c1noc(N2CCN(Cc3ccc4c(c3)OCO4)CC2)n1, the “% Inhibition” value is reported as -9% and the Z score is reported as 1.4. O=C(OCc1noc(C2CC2)n1)[C@H]1CC(=O)N(c2ccc3c(c2)CCC3)C1 was tested, and the “% Inhibition” value was -6% and the Z score was 0.94. With COCC(O)CNC(=O)NC(c1ccccc1C)C(C)(C)C (stereo not drawn) the “% Inhibition” value was 30% and the Z score was -3.35. With COc1ccc2[nH]cc([C@H](CC(=O)NCCN3CCOCC3)c3cccc(C(F)(F)F)c3)c2c1 the “% Inhibition” value was -9% and the Z score was 1.15. CCC[C@H](C)N1CC2(CCN(C(=O)CCn3cc(C)cn3)CC2)OC1=O was tested, and the “% Inhibition” value was -7% and the Z score was 1.41. With Cc1ccc(N2CCOC2=O)cc1NC(=O)N1CCCN(CC(F)F)CC1 the “% Inhibition” value was -18% and the Z score was 2.36. With O=C(c1ccco1)N1CCN(CC2([C@@H]3CCCCO3)CCC2)CC1 the “% Inhibition” value was 2% and the Z score was -0.46. In the case of c1ccc2c(c1)nc(-c1ccc3c(c1)OCO3)n2Cc1ccc2c(c1)OCO2, the “% Inhibition” value is reported as -6% and the Z score is reported as 0.59. With CC1CCN(C(=O)Nc2nc3ccccn3n2)C1c1cccc(F)c1 (stereo not drawn) the “% Inhibition” value was -6% and the Z score was 0.75. Cc1c(CN2CCC[C@H]2c2nc(-c3ccncc3)no2)[nH]c2ccc(Cl)cc12 was tested, and the “% Inhibition” value was 4% and the Z score was -0.8. O=C(NCCc1cccnc1)OCC(F)(F)F was tested, and the “% Inhibition” value was 39% and the Z score was -5.57. With COCCn1cc(CNc2nc3cccc(C)c3s2)c(=O)[nH]c1=O the “% Inhibition” value was -49% and the Z score was 5.71. CN(Cc1cc(Br)ccc1F)C[C@](C)(O)C(=O)O was tested, and the “% Inhibition” value was -15% and the Z score was 1.89. N#CC1(CNC(=O)[C@@H]2CCCn3cc(C(F)(F)F)nc32)CCCCC1 was tested, and the “% Inhibition” value was 4% and the Z score was -0.62. In the case of CC(=O)NCCc1noc(C2(c3ccccc3)CCC2)n1, the “% Inhibition” value is reported as -11% and the Z score is reported as 1.17. For O=C(Nc1ccc(-c2ccco2)cc1)N1C[C@H](CO)[C@@H](CO)C1, the “% Inhibition” value was -13% and the Z score was 1.21. COC[C@H]1CCN(C(=O)Nc2c(F)cccc2Oc2ccccc2)C1 was tested, and the “% Inhibition” value was -6% and the Z score was 0.55. CC1CC(CNC(=O)NCC2CCCC(O)C2)CC(C)O1 (stereo not drawn) was tested, and the “% Inhibition” value was -5% and the Z score was 1.02. Cc1nc(-c2ccco2)ccc1C(=O)Nc1ccc(-n2cncn2)nc1 was tested, and the “% Inhibition” value was -17% and the Z score was 2.62. CS(=O)(=O)N[C@H]1CC12CCN(C(=O)Cc1c[nH]c3ccccc13)CC2 was tested, and the “% Inhibition” value was -13% and the Z score was 1.55. For O=C(Cc1cccs1)N1CCC[C@@](F)(C(=O)N2CCOCC2)C1, the “% Inhibition” value was -29% and the Z score was 2.59. In the case of Cc1cc(=O)c(C(=O)NC(C)(C)c2ccccc2Br)c[nH]1, the “% Inhibition” value is reported as 6% and the Z score is reported as -1.07. With NC(=O)c1ccc(NC(=O)N2CCC[C@H](c3cc(F)ccc3F)C2)cc1F the “% Inhibition” value was 37% and the Z score was -4.74. In the case of Cc1ncn(-c2cc(N3CCN(C(=O)Cc4c[nH]c5ccccc45)CC3)ncn2)c1C, the “% Inhibition” value is reported as -4% and the Z score is reported as 0.4. CCS(=O)(=O)n1nc(Nc2ccccc2OC)cc1Nc1ccccc1OC was tested, and the “% Inhibition” value was -5% and the Z score was 0.71. With CC(CNC(=O)C1c2c[nH]nc2CCC1C)COCc1ccccc1 (stereo not drawn) the “% Inhibition” value was 2% and the Z score was -0.28. With NC(=NCc1ccc(-n2cncn2)nc1)c1ccccc1 the “% Inhibition” value was -3% and the Z score was 0.63. With Cc1ccc(-c2nnc(N3CCC(C(=O)NC[C@H]4CCCO4)CC3)o2)cc1 the “% Inhibition” value was -5% and the Z score was 0.82. CC(=O)N1CCN(C(=O)[C@@H]2COC3(CCC(C)CC3)N2C(=O)c2ccc(F)cc2F)CC1 (stereo partly drawn) was tested, and the “% Inhibition” value was 11% and the Z score was -1.66. In the case of CN=C(NCc1cnn(C)c1)NCc1ccc(C)cc1OCC1CC1, the “% Inhibition” value is reported as -10% and the Z score is reported as 1.45. CCN(CC)[C@@H](C)CNCc1c[nH]nc1-c1cccnc1 was tested, and the “% Inhibition” value was -4% and the Z score was 0.53. For CC(CCc1cccn1C)NC(=O)N(C)C(C)C1CC1 (stereo not drawn), the “% Inhibition” value was -8% and the Z score was 1. For C[C@H]1CN(c2ncnc3c2CCN(Cc2cccnc2)CC3)CCN1C, the “% Inhibition” value was -4% and the Z score was 0.58. For C=C(C)CN(C)[C@@H](C)c1cccc(O)c1, the “% Inhibition” value was 3% and the Z score was -0.5. In the case of CCN(CCn1cccn1)c1nc2c(s1)c(C)nn2C, the “% Inhibition” value is reported as -22% and the Z score is reported as 2.59. With CCn1c(C)cc(C(=O)N2CCC(C(N)=O)CC2)c1C the “% Inhibition” value was -13% and the Z score was 1.19. With CO[C@H]1COCC[C@@H]1NC(=O)c1ccc2ccccc2n1 the “% Inhibition” value was -6% and the Z score was 1.1. Cc1[nH]c(=O)n(C)c(=O)c1CCC(=O)Nc1ccc2c(c1)NC(=O)[C@H](C)O2 was tested, and the “% Inhibition” value was 2% and the Z score was -0.32. In the case of COc1cc(C)ccc1Oc1ccc(NC(=O)CNCC2CC2)cc1F, the “% Inhibition” value is reported as -7% and the Z score is reported as 1.03. CC(C)(C)c1cc(C(C)(C)C)c(C(N)=O)c(=O)[nH]1 was tested, and the “% Inhibition” value was 5% and the Z score was -0.79. With CC(C)CC1OCCCC1NC(=O)N1CC2CCC1CN2 (stereo not drawn) the “% Inhibition” value was 0% and the Z score was 0.03. O=C(Cn1cnc2c(nc3n2CCCCC3)c1=O)NCc1ccc(F)cc1 was tested, and the “% Inhibition” value was -5% and the Z score was 0.84. In the case of C[C@H](NC(=O)Cn1cnc(C#N)c1C#N)c1cccs1, the “% Inhibition” value is reported as -6% and the Z score is reported as 1.08. CCc1ccc2nc(C)cc(C(=O)N3CCC4(CC3)C(=O)N(C)C(=O)N4C)c2c1 was tested, and the “% Inhibition” value was 12% and the Z score was -1.77. O=C(c1cn[nH]c1)N(CCO)Cc1cccs1 was tested, and the “% Inhibition” value was -6% and the Z score was 1.21. With CCO[C@H]1COC[C@@H]1NC(=O)c1ccc(C#N)nc1 the “% Inhibition” value was -4% and the Z score was 0.73. For O=C1NCCCC[C@@H]1NCc1cnc(N2CCOCC2)nc1, the “% Inhibition” value was -7% and the Z score was 0.78. For CCC[C@H](C)NS(=O)(=O)CCN1CCOC1=O, the “% Inhibition” value was -8% and the Z score was 1.2. In the case of Cc1cnc(C[C@H]2CCCN(C(=O)c3ccoc3)C2)n1C(C)C, the “% Inhibition” value is reported as 6% and the Z score is reported as -0.87. Cc1ccc(C(=O)N2CCC3(CCCCCC3)C2)cc1OCCN was tested, and the “% Inhibition” value was -17% and the Z score was 2.5. Cc1ccnc(NCCNc2ccnc(C(=O)N3CCOCC3)c2)c1 was tested, and the “% Inhibition” value was 0% and the Z score was -0.01. With COc1cccc(C2=C[C@@H](c3ccc(Cl)cc3)n3nnnc3N2)c1 the “% Inhibition” value was -4% and the Z score was 0.46. In the case of O=C(Nc1ccsc1C(=O)NC1CCCC1)c1cnccn1, the “% Inhibition” value is reported as -2% and the Z score is reported as 0.32. For COc1ccc(C(=O)CCC(=O)N2C[C@H]3CC[C@@H](C2)N(C)C3)cc1, the “% Inhibition” value was -13% and the Z score was 1.24. In the case of Cc1ccc(S(=O)(=O)N(CC(=O)N2CCOCC2)CC(=O)N2CCOCC2)cc1, the “% Inhibition” value is reported as -15% and the Z score is reported as 1.87. COC1(Cn2ncc3ncccc32)CCC1 was tested, and the “% Inhibition” value was -6% and the Z score was 0.65. c1ccc(CN2CC3CCC(NCc4cncs4)C3C2)cc1 (stereo not drawn) was tested, and the “% Inhibition” value was 0% and the Z score was -0.03. COc1ccc(CC(=O)N2CCN(S(=O)(=O)c3c(C)nn(C(C)C)c3C)CC2)cc1Cl was tested, and the “% Inhibition” value was -5% and the Z score was 0.5. In the case of C[C@@H](C(=O)Nc1cccc2c1OCC(=O)N2)n1nnnc1C(C)(C)C, the “% Inhibition” value is reported as 7% and the Z score is reported as -1.43. In the case of Cc1cc(-c2ccc([C@H](C)N3CCCCC3)cc2)cnc1-n1cnnc1, the “% Inhibition” value is reported as 6% and the Z score is reported as -0.78. In the case of CC(C)N(Cc1ccccc1)C(=O)Cc1csc(-c2cccnc2)n1, the “% Inhibition” value is reported as -7% and the Z score is reported as 0.9. In the case of O=S(=O)(NC[C@H]1Cc2ccccc21)c1cccnc1, the “% Inhibition” value is reported as -9% and the Z score is reported as 1.8. For O=S(=O)(c1ccc(F)cc1)N1CCN(c2cnn3cnnc3c2)CC1, the “% Inhibition” value was -7% and the Z score was 1.01. With [2H]c1c([2H])c([2H])c(C(=O)c2sc(N3CCCCCC3)nc2-c2ccccc2)c([2H])c1[2H] the “% Inhibition” value was -3% and the Z score was 0.43. CCOC(=O)N1CCC(N2CCC3(CC2)C[C@@H]3C(=O)Nc2cc(C)cc(C)c2)CC1 was tested, and the “% Inhibition” value was -12% and the Z score was 1.34. Cc1n[nH]c(NC(=O)COc2ccc(F)c(F)c2)c1-c1cccc(Cl)c1 was tested, and the “% Inhibition” value was -7% and the Z score was 0.89. For CC(C)c1ccc(CN[C@@H](C)CCc2ccco2)cc1, the “% Inhibition” value was 0% and the Z score was 0.03. For C=CCc1cc(-c2nccn2Cc2cc(O)ncn2)cc(OC)c1O, the “% Inhibition” value was 4% and the Z score was -0.57. CCCc1nc(C(=O)N2CCC(OC)(c3ccccc3)CC2)cs1 was tested, and the “% Inhibition” value was 12% and the Z score was -1.52. With O=C1C2CC=CCC2C(=O)N1c1ccc(OCc2ccccc2)cc1 (stereo not drawn) the “% Inhibition” value was 2% and the Z score was -0.34. With Cc1cc(C)cc(NC(=O)Cn2nc3c(N4CCc5ccccc5C4)nccn3c2=O)c1 the “% Inhibition” value was -15% and the Z score was 1.46. Cc1ccc(OC2CCN(C(=O)Cc3cccc4ccccc34)CC2)nn1 was tested, and the “% Inhibition” value was -16% and the Z score was 3.05. In the case of CNC(=O)c1cn(C[C@@H]2CC(F)(F)CN2Cc2cc(F)cc(F)c2)nn1, the “% Inhibition” value is reported as -3% and the Z score is reported as 0.51. CCc1nc2c(c(OC3CCN(S(=O)(=O)c4cccc(OC)c4)CC3)n1)CCOCC2 was tested, and the “% Inhibition” value was -8% and the Z score was 1.
